Out of some 310,000 compounds screened, about 14,000 (4.5%) showed an effect of 50% or more. The effect is printed as a negative number. Some of the results follow.

This note sets out measurements from paper PMC4336329 (PLoS ONE, 2015).
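Also: peak tail current of the secondary pulse compared with the same well before compound.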

human ether-à-go-go-related gene (hERG) potassium channel, sequence (Q12809 whole entry, looked up): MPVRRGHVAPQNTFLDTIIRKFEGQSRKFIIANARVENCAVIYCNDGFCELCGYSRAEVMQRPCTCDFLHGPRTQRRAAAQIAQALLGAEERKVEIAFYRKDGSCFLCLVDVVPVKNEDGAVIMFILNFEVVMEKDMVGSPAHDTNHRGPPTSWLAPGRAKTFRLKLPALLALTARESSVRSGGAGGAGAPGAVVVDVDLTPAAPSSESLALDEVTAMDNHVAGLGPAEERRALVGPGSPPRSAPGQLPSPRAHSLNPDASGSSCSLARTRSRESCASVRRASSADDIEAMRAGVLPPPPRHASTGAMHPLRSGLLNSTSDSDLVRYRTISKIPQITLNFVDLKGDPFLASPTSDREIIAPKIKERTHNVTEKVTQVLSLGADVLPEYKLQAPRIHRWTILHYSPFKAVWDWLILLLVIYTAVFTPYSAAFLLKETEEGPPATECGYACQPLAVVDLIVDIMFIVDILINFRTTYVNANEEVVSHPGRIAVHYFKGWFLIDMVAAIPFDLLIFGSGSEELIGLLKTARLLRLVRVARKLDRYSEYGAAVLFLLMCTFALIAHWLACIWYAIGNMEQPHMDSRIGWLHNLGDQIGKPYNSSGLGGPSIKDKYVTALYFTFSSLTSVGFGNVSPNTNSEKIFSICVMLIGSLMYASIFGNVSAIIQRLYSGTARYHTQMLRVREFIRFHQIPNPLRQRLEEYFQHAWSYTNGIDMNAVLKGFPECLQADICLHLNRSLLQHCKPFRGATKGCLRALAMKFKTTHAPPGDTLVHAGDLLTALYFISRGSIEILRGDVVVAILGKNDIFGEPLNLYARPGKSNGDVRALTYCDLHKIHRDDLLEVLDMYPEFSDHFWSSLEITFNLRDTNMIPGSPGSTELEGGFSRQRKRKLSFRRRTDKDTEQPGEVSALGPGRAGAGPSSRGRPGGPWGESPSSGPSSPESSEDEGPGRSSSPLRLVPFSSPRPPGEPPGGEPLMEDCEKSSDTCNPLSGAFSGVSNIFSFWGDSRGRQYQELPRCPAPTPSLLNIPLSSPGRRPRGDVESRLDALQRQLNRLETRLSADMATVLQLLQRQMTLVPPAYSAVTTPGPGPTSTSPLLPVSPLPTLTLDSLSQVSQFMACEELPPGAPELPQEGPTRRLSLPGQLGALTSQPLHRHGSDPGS

This assay has as its target human ether-à-go-go-related gene (hERG) potassium channel (human, UniProt Q12809). Nature of the assay: primary screen, population patch clamp on CHO cells stably expressing hERG.
Turning to `CCC(C)(C)NC(=O)C(c1ccc(F)cc1)N(Cc1cccs1)C(=O)c1cnccn1` (stereo not drawn), the “hERG current change (%, negative = inhibition) at 10uM” value is on record as -21.1%. The figure for `Cc1c(-c2nc(N)nc(Nc3ccccc3F)n2)oc2ccccc12` is 20.3%. `Cc1ccc(NS(=O)(=O)c2c(C)[nH]c(C)c2C(=O)N2CCCCC2)cc1F`: the “hERG current change (%, negative = inhibition) at 10uM” value came out at 12.5%. On to `CCc1cccc(C)c1NC(=O)COn1nnc2ccc(C(F)(F)F)cc21`, for which the “hERG current change (%, negative = inhibition) at 10uM” value is given as 0.291%. As for `CCNC(=O)CN(CCc1ccccc1)S(=O)(=O)c1ccc(OC)cc1`, the figure is -26.2%.

For `O=C(CN1C(=O)NC(Cc2ccccc2)C1=O)Nc1ccc(F)c(Cl)c1` (stereo not drawn), the “hERG current change (%, negative = inhibition) at 10uM” value is 10.9%.

As for `CN(C)S(=O)(=O)c1ccc(C(=O)OCC2CCCO2)cc1` (stereo not drawn), the “hERG current change (%, negative = inhibition) at 10uM” value is 14.6%. Regarding `CCCCNC(=O)CCSc1ccc(C)cc1`, the “hERG current change (%, negative = inhibition) at 10uM” value is -2.9%. On to `CCn1ncc([C@@H]2C[C@H]3CN(Cc4cccc(Cl)c4)C(=O)[C@]34CCCN24)c1C`, for which the “hERG current change (%, negative = inhibition) at 10uM” value is recorded as -33%. Turning to `Cn1nc(C(=O)Nc2ccc(S(=O)(=O)NCc3ccco3)cc2)c2ccccc2c1=O`, the “hERG current change (%, negative = inhibition) at 10uM” value came to 27.4%. As to `Cc1cccc(NC(=O)CSc2nnc([C@H](C)NC(=O)OC(C)(C)C)o2)c1C`, the “hERG current change (%, negative = inhibition) at 10uM” value is recorded as 3.28%. On to `O=C1C(=O)N(CCCc2ccccc2)c2ccccc21`, for which the “hERG current change (%, negative = inhibition) at 10uM” value turned out to be 8.28%.

As for `COc1cccc(NC2c3ccccc3C(=O)N2Cc2ccccc2Cl)c1` (stereo not drawn), the “hERG current change (%, negative = inhibition) at 10uM” value is -12.7%. Turning to `CCOc1ccc(OCCn2c(SCC(=O)O)nc3ccccc32)cc1`, the “hERG current change (%, negative = inhibition) at 10uM” value was -0.204%. Regarding `CC(NC(=O)C1CCN(S(=O)(=O)c2cccc3cccnc23)CC1)c1ccccc1` (stereo not drawn), the “hERG current change (%, negative = inhibition) at 10uM” value came to 18.7%. The figure for `COc1cc(C(=O)NCC(=O)OCC(=O)N2CCc3ccccc32)cc(OC)c1OC` is 3.43%; for `Cc1nn(-c2ccccc2)c(N)c1-c1ccccc1` it is 5.13%.

With `CC(=O)c1ccc(N(CC(=O)NC2CCCCC2)C(=O)c2csnn2)cc1`, the “hERG current change (%, negative = inhibition) at 10uM” value is reported as -8.91%. For `Cc1ccc(Nc2nc(C(=O)N3CCC(C(=O)NCCN4CCOCC4)CC3)cs2)cc1`, the “hERG current change (%, negative = inhibition) at 10uM” value came out at 12.3%. Regarding `OCc1nc2ccccc2n1Cc1ccc(Cl)cc1`, the “hERG current change (%, negative = inhibition) at 10uM” value is on record as 8.87%.

On to `O=C(COC(=O)c1cnccn1)c1ccc(Cl)cc1`, for which the “hERG current change (%, negative = inhibition) at 10uM” value came out at 24.4%.

With `N#Cc1cc(Oc2ccccc2)c(-n2nnc3ccccc32)cc1C#N`, the “hERG current change (%, negative = inhibition) at 10uM” value is given as 4.79%. As for `COCCn1c(SCC(=O)Nc2ccc3c(c2)CCC3)nc2ccccc2c1=O`, the figure is 4.46%; as for `CCOc1ccc(CC(C(N)=O)C(N)=O)cc1`, 21.3%.

In the case of `CN(C)c1ccc(/C=N/NC(=O)c2nnn(-c3nonc3N)c2CN2CCCCCC2)cc1`, the “hERG current change (%, negative = inhibition) at 10uM” value was 1.78%. As for `Cc1ccc(N=C2NC(=O)CC(C(=O)Nc3ccc4c(c3)OCO4)S2)cc1` (stereo not drawn), the figure is 26.7%; as for `COc1ccc(NC(=O)CN(C)C(C)C(=O)NC(=O)NC2CCCCC2)cc1` (stereo not drawn), -3.11%.

Regarding `CC(C)OCCCNc1ncnc2c1[nH]c1ccc(F)cc12`, the “hERG current change (%, negative = inhibition) at 10uM” value is listed as -2.39%. Consider `COc1cc(NC(=O)c2cccs2)ccc1NC(=O)c1ccco1`, for which the “hERG current change (%, negative = inhibition) at 10uM” value turned out to be 7.66%. As to `CCOC(=O)C1=C(N)N2C(=O)C(C)SC2=C(C(=O)OCC)C1c1ccccc1` (stereo not drawn), the “hERG current change (%, negative = inhibition) at 10uM” value was found to be 13.3%. As for `O=C(c1ccc(Br)o1)N1CCN(c2ccc3nnc(-c4ccccc4)n3n2)CC1`, the “hERG current change (%, negative = inhibition) at 10uM” value is -79.1%. As for `CCC(=O)Nn1cnc2c(c1=O)C1(CCCCC1)Cc1ccccc1-2`, the figure is 2.51%; as for `COc1ccccc1C(=O)NCCc1nc2ccccc2[nH]1`, 6.65%. In the case of `Cc1ccnc2c(N3C(=O)C4C5C=CC(C5)C4(C)C3=O)cccc12` (stereo not drawn), the “hERG current change (%, negative = inhibition) at 10uM” value is recorded as -2.98%. Consider `COc1cccc(N2CCN(C(=O)c3ccc(CS(=O)Cc4ccc(C)cc4)o3)CC2)c1` (stereo not drawn), for which the “hERG current change (%, negative = inhibition) at 10uM” value was -11.4%.

Turning to `CCOc1cc(CNCCc2cccc(F)c2)ccc1OC.O=C(O)C(=O)O`, the “hERG current change (%, negative = inhibition) at 10uM” value is on record as -43.8%.

For the compound `COC(=O)c1ccccc1NC(=O)CSc1n[nH]c(-c2ccco2)n1`, the “hERG current change (%, negative = inhibition) at 10uM” value came to 17.2%. Consider `CCOCCCNC(=O)c1cc(Nc2ccc(OC)cc2OC)nc2ccccc12`, for which the “hERG current change (%, negative = inhibition) at 10uM” value is listed as -7.58%. For `CC(NC(=O)[C@H](NC(=O)[C@@H]1Cc2ccccc2CN1)c1ccccc1)c1ccccc1` (stereo partly drawn), the “hERG current change (%, negative = inhibition) at 10uM” value is on record as -32.9%.

Take `CCOC(=O)c1cnc2nc(NCc3ccc(OC)c(OC)c3)[nH]n2c1=O`: the “hERG current change (%, negative = inhibition) at 10uM” value came out at 7.84%. `COc1ccccc1NC(=O)C1=C(C)NC(SCC(=O)Nc2ccc(C(=O)O)cc2)=C(C#N)C1c1cccs1` (stereo not drawn): the “hERG current change (%, negative = inhibition) at 10uM” value worked out at 20.7%. Turning to `Clc1ccc(-c2nnc3n2-c2ccccc2SC3)cc1`, the “hERG current change (%, negative = inhibition) at 10uM” value is on record as -36.7%. The figure for `Cc1cc(C)n(-c2ccc(C(=O)Nc3ccc(C)c(S(=O)(=O)N4CCOCC4)c3)cc2)n1` is -20.1%; for `COc1ccc(NC(=O)c2ccc(-c3ccccc3Cl)o2)cc1` it is 5.05%; for `CC(=O)c1cccc(NC(=O)NC(C)c2ccncc2)c1` (stereo not drawn) it is 0.761%.
